Values joined by “and” are separate entries in the source; they are usually repeats but may differ in a detail not shown here. Equal entries are not always repeated.
Key:
cynomolgus monkey FXI = cynomolgus monkey FXI (cynomolgus monkey); test: direct ELISA, panel 'Cynomolgus monkey FXI': antigen coated on the plate, IgG titrated, AP-anti-human F(ab)2 and AttoPhos fluorescence (RFU); half-maximal binding concentration of the fit, headed 'IC50' in the drawn table; unit taken from the axis 'Conc. [nM]'
cynomolgus monkey FXI, sequence (P03951 other isoform, or with tags, fused parts or gaps): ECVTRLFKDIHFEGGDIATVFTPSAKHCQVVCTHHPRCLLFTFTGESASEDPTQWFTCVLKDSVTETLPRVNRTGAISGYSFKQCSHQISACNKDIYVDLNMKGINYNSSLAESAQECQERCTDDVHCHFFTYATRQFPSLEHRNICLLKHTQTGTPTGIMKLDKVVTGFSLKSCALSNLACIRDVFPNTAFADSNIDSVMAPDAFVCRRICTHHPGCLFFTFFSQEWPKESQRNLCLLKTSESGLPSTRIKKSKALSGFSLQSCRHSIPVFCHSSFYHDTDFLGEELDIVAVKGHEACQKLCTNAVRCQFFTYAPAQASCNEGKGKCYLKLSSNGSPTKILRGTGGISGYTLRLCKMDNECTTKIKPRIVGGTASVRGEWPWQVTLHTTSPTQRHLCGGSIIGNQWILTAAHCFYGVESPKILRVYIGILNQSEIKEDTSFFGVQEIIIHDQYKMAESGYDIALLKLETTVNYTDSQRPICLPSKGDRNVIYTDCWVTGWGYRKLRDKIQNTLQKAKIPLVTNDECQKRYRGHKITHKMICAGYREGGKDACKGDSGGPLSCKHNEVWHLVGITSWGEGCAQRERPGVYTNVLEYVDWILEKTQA
Experimental: (§1) For direct coating ELISAs, antigens were immobilized on 384-well Maxisorp™ microtiter plates over night at 4° C. using the concentrations as shown in Table 5. After blocking with 5% skim milk powder in PBS (80 μl/well), 20 μl/well of Fab-containing E. coli lysates or purified antibodies at various concentrations (typically 12 points of a 1:3 titration starting at 200 nM IgG or Fab, respectively) were added to plates and incubated for 1 h at room temperature. […] Fluorescence emission at 535 nm was recorded with excitation at 430 nm. Multiple wash steps with PBS+0.05% Tween20 were performed in between individual assay steps.

rabbit FXI = rabbit FXI (rabbit); test: direct ELISA, panel 'Rabbit FXI': antigen coated on the plate, IgG titrated, AP-anti-human F(ab)2 and AttoPhos fluorescence (RFU); half-maximal binding concentration of the fit, headed 'IC50' in the drawn table; unit taken from the axis 'Conc. [nM]'
Experimental: as §1

[1] = molecular target: T1, human plasma derived FXIa (human, UniProt P03951); test: cell-based or functional assay
[2] = molecular target: T1, human plasma derived FXIa; test: SET, full length IgG
T1 sequence (P03951 19-625 C226S limits assumed): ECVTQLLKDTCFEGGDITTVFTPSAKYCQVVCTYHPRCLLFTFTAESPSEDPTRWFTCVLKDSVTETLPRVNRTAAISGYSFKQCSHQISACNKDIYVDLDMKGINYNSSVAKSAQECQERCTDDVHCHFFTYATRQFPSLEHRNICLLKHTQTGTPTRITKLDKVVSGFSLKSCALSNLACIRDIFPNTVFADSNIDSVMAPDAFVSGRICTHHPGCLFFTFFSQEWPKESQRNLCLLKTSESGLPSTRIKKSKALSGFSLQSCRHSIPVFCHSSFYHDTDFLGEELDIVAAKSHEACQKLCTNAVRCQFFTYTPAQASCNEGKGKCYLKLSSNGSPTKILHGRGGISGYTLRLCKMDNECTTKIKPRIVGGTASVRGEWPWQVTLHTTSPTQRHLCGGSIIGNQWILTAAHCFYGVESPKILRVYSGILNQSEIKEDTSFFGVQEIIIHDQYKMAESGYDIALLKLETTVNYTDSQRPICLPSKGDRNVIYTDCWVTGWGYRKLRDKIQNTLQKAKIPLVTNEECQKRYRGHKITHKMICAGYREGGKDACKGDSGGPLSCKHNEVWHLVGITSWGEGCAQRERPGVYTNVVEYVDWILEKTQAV

[3] = molecular target: T1, human plasma derived FXIa; test: solution equilibrium titration (SET), IgG at 5 pM, 1:1 binding model
Experimental: Experiments were carried out in polypropylene microtiter plates and with PBS (GIBCO 14190, pH 7.0-7.2) containing 0.5% BSA and 0.02% Tween20 as assay buffer. Serial dilutions of unlabeled FXIa antigen were prepared, starting with a concentration at least 10 times higher than the expected KD. Wells without antigen were used to determine Bₘₐₓ values; wells containing only assay buffer were used to determine background. After addition of an appropriate amount of binder (antibody concentration similar to or below the expected KD, 60 μL final volume), the mixture was incubated over night at RT.
MSD plates were coated with 1 μg/mL human plasma derived FXIa (30 μL per well). After washing the plate with PBS containing 0.05% Tween 20, the equilibrated samples were transferred to the plates and incubated for 20 min. Following incubation, 30 μL per well of the MSD-Sulfo-tag labeled detection antibody (anti-Flag M2 (Sigma) 1:2,000) was added to the washed MSD plate and incubated for 30 min at RT on an Eppendorf shaker (700 rpm).
The SET method described in Example 2 was used to determine the KD for AM4 (IgG), and compared to NOV1401, the germlined version of its parental antibody NOV1090.

| Binder | IC50 (cynomolgus monkey FXI) [nM] | IC50 (rabbit FXI) [nM] | TGA IC50 [1] [nM] | TGA Residual Thrombin [nM] (%) [1] | fold higher affinity than NOV1090 [2] [fold] | Kd [3] [nM] |
| --- | --- | --- | --- | --- | --- | --- |
| AM3 (IgG) (antibody) heavy: QVQLLESGGGLVQPGGSLRLSCAASGFTFSTAAMSWVRQAPGKGLEWVSTIEYSSQETYYADSVKGRFTISRDNSKNTLYLQMNSLRAEDTAVYYCARELSYLYSGYYFDYWGQGTLVTVSSASTKGPSVFPLAPSSKSTSGGTAALGCLVKDYFPEPVTVSWNSGALTSGVHTFPAVLQSSGLYSLSSVVTVPSSSLGTQTYICNVNHKPSNTKVDKRV[skipping human IgG1 Fc with changes] light: DIVLTQPPSVSGAPGQRVTISCSGSSSNIGSNDVSWYQQLPGTAPKLLIYKNYNRPSGVPDRFSGSKSGTSASLAITGLQAEDEADYYCSAWDQRQFDVVFGGGTKLTVLGQPKAAPSVTLFPPSSEELQANKATLVCLISDFYPGAVTVAWKADSSPVKAGVETTTPSKQSNNKYAASSYLSLTPEQWKSHRSYSCQVTHEGSTVEKTVAPTECS | 0.449 | 0.406 | 9 | 19.7% and 85.3 nM | – | – |
| AM4 (IgG) (antibody, Germlined version of AM3, with two amino acid changes at the N-terminus of the light chain) heavy: QVQLLESGGGLVQPGGSLRLSCAASGFTFSTAAMSWVRQAPGKGLEWVSTIEYSSQETYYADSVKGRFTISRDNSKNTLYLQMNSLRAEDTAVYYCARELSYLYSGYYFDYWGQGTLVTVSSASTKGPSVFPLAPSSKSTSGGTAALGCLVKDYFPEPVTVSWNSGALTSGVHTFPAVLQSSGLYSLSSVVTVPSSSLGTQTYICNVNHKPSNTKVDKRV[skipping human IgG1 Fc with changes] light: QSVLTQPPSVSGAPGQRVTISCSGSSSNIGSNDVSWYQQLPGTAPKLLIYKNYNRPSGVPDRFSGSKSGTSASLAITGLQAEDEADYYCSAWDQRQFDVVFGGGTKLTVLGQPKAAPSVTLFPPSSEELQANKATLVCLISDFYPGAVTVAWKADSSPVKAGVETTTPSKQSNNKYAASSYLSLTPEQWKSHRSYSCQVTHEGSTVEKTVAPTECS | – | – | – | – | ~10 | 0.00022 |

From patent US20190330372A1 (Novartis, published 2019)
